From patent US20250205344A1, “2,4-DIOXOTETRAHYDROPYRIMIDINYL DERATIVES AS DEGRONS IN PROTACS” (GLAXOSMITHKLINE INTELLECTUAL PROPERTY DEVELOPMENT LIMITED, priority 2022, published 2025)
Some entries share one result that the patent states for a list of compounds. The name of at least one read-out is uncertain.

Target: T1, Androgen Receptor (Homo sapiens, UniProt P10275, T878A)
T1 construct: the AR gene was modified, using CRISPR/Cas9 editing, so the expressed AR protein included an 11 amino acid HiBiT tag; endogenous in cells; host or cells: clonal LnCaP-derived line, AR gene edited by CRISPR/Cas9
T1 sequence (P10275 whole entry T878A): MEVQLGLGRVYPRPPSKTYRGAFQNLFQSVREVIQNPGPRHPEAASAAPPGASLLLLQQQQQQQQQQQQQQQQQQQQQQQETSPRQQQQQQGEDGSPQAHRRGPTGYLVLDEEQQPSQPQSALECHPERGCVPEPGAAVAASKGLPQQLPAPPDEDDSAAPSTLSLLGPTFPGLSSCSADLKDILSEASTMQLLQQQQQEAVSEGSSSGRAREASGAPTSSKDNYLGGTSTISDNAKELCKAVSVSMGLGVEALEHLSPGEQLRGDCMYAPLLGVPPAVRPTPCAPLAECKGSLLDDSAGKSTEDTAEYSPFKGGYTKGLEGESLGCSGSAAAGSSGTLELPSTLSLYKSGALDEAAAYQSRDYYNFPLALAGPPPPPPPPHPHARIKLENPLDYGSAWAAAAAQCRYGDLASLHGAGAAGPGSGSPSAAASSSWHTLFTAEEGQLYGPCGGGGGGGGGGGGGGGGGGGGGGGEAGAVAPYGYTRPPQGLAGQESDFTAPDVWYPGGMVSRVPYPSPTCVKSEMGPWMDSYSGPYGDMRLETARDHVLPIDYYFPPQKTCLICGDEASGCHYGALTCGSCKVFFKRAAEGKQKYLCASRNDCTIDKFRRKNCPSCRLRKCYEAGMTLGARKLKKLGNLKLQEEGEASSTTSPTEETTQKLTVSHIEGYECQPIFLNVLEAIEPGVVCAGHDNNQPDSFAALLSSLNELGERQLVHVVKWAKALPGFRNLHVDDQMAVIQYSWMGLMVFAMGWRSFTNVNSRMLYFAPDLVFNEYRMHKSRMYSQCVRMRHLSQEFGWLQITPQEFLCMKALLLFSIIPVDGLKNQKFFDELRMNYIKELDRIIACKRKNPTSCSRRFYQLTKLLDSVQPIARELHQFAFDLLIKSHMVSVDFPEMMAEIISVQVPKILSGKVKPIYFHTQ
T1 sequence (Q96SW2 whole entry partner): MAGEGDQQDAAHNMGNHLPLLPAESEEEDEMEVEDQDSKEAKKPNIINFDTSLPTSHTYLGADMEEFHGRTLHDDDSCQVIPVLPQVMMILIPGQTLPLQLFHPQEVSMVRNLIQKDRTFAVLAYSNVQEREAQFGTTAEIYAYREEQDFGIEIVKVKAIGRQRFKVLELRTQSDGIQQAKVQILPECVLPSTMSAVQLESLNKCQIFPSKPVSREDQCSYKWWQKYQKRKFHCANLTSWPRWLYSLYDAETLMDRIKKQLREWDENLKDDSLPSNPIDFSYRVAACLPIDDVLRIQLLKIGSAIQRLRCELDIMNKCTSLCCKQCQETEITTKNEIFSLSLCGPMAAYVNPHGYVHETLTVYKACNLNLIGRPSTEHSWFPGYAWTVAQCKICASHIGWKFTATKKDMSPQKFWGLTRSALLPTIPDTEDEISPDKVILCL
T1 sequence (Q16531 whole entry partner): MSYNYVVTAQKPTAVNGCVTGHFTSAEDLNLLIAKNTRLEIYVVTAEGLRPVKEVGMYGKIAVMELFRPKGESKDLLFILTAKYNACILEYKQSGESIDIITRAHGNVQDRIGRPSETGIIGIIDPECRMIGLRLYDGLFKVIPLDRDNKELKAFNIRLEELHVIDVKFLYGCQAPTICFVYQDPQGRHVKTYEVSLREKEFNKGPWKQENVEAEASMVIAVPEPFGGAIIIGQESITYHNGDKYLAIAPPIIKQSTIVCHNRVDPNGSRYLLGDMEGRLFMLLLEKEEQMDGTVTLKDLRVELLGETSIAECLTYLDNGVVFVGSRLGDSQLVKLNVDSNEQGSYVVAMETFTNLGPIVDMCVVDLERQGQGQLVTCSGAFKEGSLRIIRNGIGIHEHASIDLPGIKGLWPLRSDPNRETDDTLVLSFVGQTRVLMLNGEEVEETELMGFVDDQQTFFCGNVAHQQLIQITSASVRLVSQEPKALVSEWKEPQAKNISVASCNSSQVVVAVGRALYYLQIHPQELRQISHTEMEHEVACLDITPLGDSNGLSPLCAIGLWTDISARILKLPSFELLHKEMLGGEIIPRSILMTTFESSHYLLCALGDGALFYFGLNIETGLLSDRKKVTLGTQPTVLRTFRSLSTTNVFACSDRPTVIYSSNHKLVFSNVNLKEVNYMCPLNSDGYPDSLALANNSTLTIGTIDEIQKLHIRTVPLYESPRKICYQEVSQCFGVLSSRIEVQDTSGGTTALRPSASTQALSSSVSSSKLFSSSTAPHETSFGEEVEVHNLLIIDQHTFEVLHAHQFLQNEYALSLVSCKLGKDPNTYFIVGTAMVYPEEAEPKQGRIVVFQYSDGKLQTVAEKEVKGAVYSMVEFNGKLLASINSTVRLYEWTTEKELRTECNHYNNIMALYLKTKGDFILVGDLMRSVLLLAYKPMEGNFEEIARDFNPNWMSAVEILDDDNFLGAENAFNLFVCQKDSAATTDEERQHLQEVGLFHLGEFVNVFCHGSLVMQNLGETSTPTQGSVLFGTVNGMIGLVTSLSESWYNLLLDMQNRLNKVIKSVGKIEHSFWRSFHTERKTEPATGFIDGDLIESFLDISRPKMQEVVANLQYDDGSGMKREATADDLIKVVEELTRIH
Experiment: Androgen Receptor Degradation Assay (Nano-Glo HiBiT)
Type: cell-based
Conditions: HiBiT-tagged AR in human LnCaP cells, 18 h
Experimental: Degradation of Androgen Receptor protein in human LnCaP cells treated with PROTACs was quantified using the Nano-Glo® HiBiT Lytic Detection System (Promega) in 384 well assay plate format. A clonal LnCaP derived cell line was first established in which the AR gene was modified, using CRISPR/Cas9 editing, so the expressed AR protein included an 11 amino acid HiBiT tag at its amino-terminus. 10 mM DMSO stock solutions of PROTACs were prepared and diluted across an 11 concentration, 3 fold increment range, and 25 nL dispensed into a white opaque bottomed 384 well assay plate (Thermofisher) using an acoustic ECHO dispenser (Labcyte). […] For the assay, cells were detached from flask and resuspended with assay medium (FluoroBrite™ DMEM supplemented with 10% heat inactivated FBS, penicillin 50 U/mL and streptomycin 50 ug/mL (Thermofisher)). The cell suspension was centrifuged at 400 g for 5 min and the pellet resuspended in assay medium. 25 μL of cell suspension containing 10,000 cells was dispensed into each well of the assay plate containing the test compounds, which was then incubated for 18 h at 37° C./5% CO2. Control wells were included on each assay plate, with assay medium without cells being the no AR remaining 100% effect control, and cells treated with DMSO vehicle only, without PROTAC, the 0% effect control. 25 μL of Nano-Glo® HiBiT lysis buffer supplemented with LgBiT protein and Nano-Glo® substrate (Promega) was added to each well and the plate shaken at 500 rpm for 10 min at room temperature. The intensity of luminescence was measured using a PHERAstar microplate reader (BMG Labtech) and the % AR protein remaining in each well calculated by normalising the raw luminescence value to the above control wells. Parameters corresponding to the potency and efficacy estimates of the PROTACs were obtained from these normalised luminescence values using software (IDBS ActivityBase). These included the DC50 and the Dmax estimates. Two versions of the DC50, called relative DC50 and absolute DC50, were typically generated. These are the inflection point of a fitted 4 parameter sigmoidal response curve and the interpolated concentration of PROTAC corresponding to 50% of the protein being degraded, respectively. The Dmax parameter was the maximum experimentally observed degradation and the asymptote max parameter the fitted response curve asymptote maximum.

Compound | mean relative pDC50 | further results
N#Cc1ccc(O[C@H]2CC[C@H](NC(=O)c3cnc(N4CCC(CN5CCC(n6ccc7c(N8CCC(=O)NC8=O)cccc76)CC5)CC4)cn3)CC2)cc1Cl [EAR9, N-((1r,4r)-4-(3-Chloro-4-cyanophenoxy)cyclohexyl)-5-(4-((4-(4-(2,4-dioxotetrahydropyrimidin-1(2H)-yl)-1H-indol-1-yl)piperidin-1-yl)methyl)piperidin-1-yl)pyrazine-2-carboxamide] | ≥ 8.0 | 
CC1(C)[C@H](NC(=O)c2cnc(N3CCC(CN4CCC(n5ccc6c(N7CCC(=O)NC7=O)cccc65)CC4)CC3)nc2)C(C)(C)[C@H]1Oc1ccc(C#N)c(Cl)c1 [EAR11, N-((1r,3r)-3-(3-Chloro-4-cyanophenoxy)-2,2,4,4-tetramethylcyclobutyl)-2-(4-((4-(4-(2,4-dioxotetrahydropyrimidin-1(2H)-yl)-1H-indol-1-yl)piperidin-1-yl)methyl)piperidin-1-yl)pyrimidine-5-carboxamide] | ≥ 8.0 | 
N#Cc1ccc(O[C@H]2CC[C@H](NC(=O)c3ccc(N4CCC(CN5CCC(n6ccc7c(N8CCC(=O)NC8=O)cccc76)CC5)CC4)nc3)CC2)cc1Cl [EAR13, N-((1r,4r)-4-(3-Chloro-4-cyanophenoxy)cyclohexyl)-6-(4-((4-(4-(2,4-dioxotetrahydropyrimidin-1(2H)-yl)-1H-indol-1-yl)piperidin-1-yl)methyl)piperidin-1-yl)nicotinamide] | ≥ 8.0 | 
CC1(C)[C@H](NC(=O)c2cnc(N3CCC(CN4CCC(n5ccc6c(N7CCC(=O)NC7=O)cncc65)CC4)CC3)nc2)C(C)(C)[C@H]1Oc1ccc(C#N)c(Cl)c1 [EAR18, N-((1r,3r)-3-(3-Chloro-4-cyanophenoxy)-2,2,4,4-tetramethylcyclobutyl)-2-(4-((4-(4-(2,4-dioxotetrahydropyrimidin-1(2H)-yl)-1H-pyrrolo[2,3-c]pyridin-1-yl)piperidin-1-yl)methyl)piperidin-1-yl)pyrimidine-5-carboxamide] | ≥ 8.0 | mean asymptote max: > 70%
CC1(C)[C@H](NC(=O)c2ccc(N3CCC(CN4CCC(n5ccc6c(N7CCC(=O)NC7=O)cncc65)CC4)CC3)nc2)C(C)(C)[C@H]1Oc1ccc(C#N)c(Cl)c1 [EAR20, N-((1r,3r)-3-(3-Chloro-4-cyanophenoxy)-2,2,4,4-tetramethylcyclobutyl)-6-(4-((4-(4-(2,4-dioxotetrahydropyrimidin-1(2H)-yl)-1H-pyrrolo[2,3-c]pyridin-1-yl)piperidin-1-yl)methyl)piperidin-1-yl)nicotinamide] | ≥ 8.0 | mean asymptote max: > 70%
N#Cc1ccc(O[C@H]2CC[C@H](NC(=O)c3ccc(N4CCCC(N5CCC(n6ccc7c(N8CCC(=O)NC8=O)cccc76)CC5)C4)cc3)CC2)cc1Cl (stereo partly drawn) [EAR28, N-((1r,4r)-4-(3-Chloro-4-cyanophenoxy)cyclohexyl)-4-(4-(4-(2,4-dioxotetrahydropyrimidin-1(2H)-yl)-1H-indol-1-yl)-[1,3′-bipiperidin]-1′-yl)benzamide] | ≥ 6.0 | 
Cl.N#Cc1ccc(O[C@H]2CC[C@H](NC(=O)c3cnc(N4CCC(CN5CCC(n6ncc7c(N8CCC(=O)NC8=O)cccc76)CC5)CC4)cn3)CC2)cc1Cl [EAR39, N-((1r,4r)-4-(3-Chloro-4-cyanophenoxy)cyclohexyl)-5-(4-((4-(4-(2,4-dioxotetrahydropyrimidin-1(2H)-yl)-1H-indazol-1-yl)piperidin-1-yl)methyl)piperidin-1-yl)pyrazine-2-carboxamide hydrochloride] |  | mean asymptote max (hydrochloride): > 70%
Cl.N#Cc1ccc(O[C@H]2CC[C@H](NC(=O)c3ccc(N4CCC(CN5CCC(n6ccc7c(N8CCC(=O)NC8=O)cncc76)CC5)CC4)nn3)CC2)cc1C(F)(F)F [EAR46, N-((1r,4r)-4-(4-Cyano-3-(trifluoromethyl)phenoxy)cyclohexyl)-6-(4-((4-(4-(2,4-dioxotetrahydropyrimidin-1(2H)-yl)-1H-pyrrolo[2,3-c]pyridin-1-yl)piperidin-1-yl)methyl)piperidin-1-yl)pyridazine-3-carboxamide hydrochloride] |  | mean asymptote max: ≥ 50%; mean relative pDC50 (hydrochloride): ≥ 8.0
Cl.N#Cc1ccc(O[C@H]2CC[C@H](NC(=O)c3ccc(N4CCC(CN5CCC(n6ncc7c(N8CCC(=O)NC8=O)cncc76)CC5)CC4)nn3)CC2)cc1Cl [EAR53, N-((1r,4r)-4-(3-Chloro-4-cyanophenoxy)cyclohexyl)-6-(4-((4-(4-(2,4-dioxotetrahydropyrimidin-1(2H)-yl)-1H-pyrazolo[3,4-c]pyridin-1-yl)piperidin-1-yl)methyl)piperidin-1-yl)pyridazine-3-carboxamide hydrochloride] |  | mean relative pDC50 (hydrochloride): ≥ 8.0
N#Cc1ccc(O[C@H]2CC[C@H](NC(=O)c3cnc(N4CCC(C(=O)N5CCC(n6ccc7c(N8CCC(=O)NC8=O)cccc76)CC5)CC4)nc3)CC2)cc1C(F)(F)F [EAR68, N-((1r,4r)-4-(4-Cyano-3-(trifluoromethyl)phenoxy)cyclohexyl)-2-(4-(4-(4-(2,4-dioxotetrahydropyrimidin-1(2H)-yl)-1H-indol-1-yl)piperidine-1-carbonyl)piperidin-1-yl)pyrimidine-5-carboxamide] | ≥ 6.0 | 
N#Cc1ccc(O[C@H]2CC[C@H](NC(=O)c3cnc(N4CCC(C(=O)N5CCC(n6ccc7c(N8CCC(=O)NC8=O)cccc76)CC5)CC4)nc3)CC2)cc1Cl [EAR69, N-((1r,4r)-4-(3-Chloro-4-cyanophenoxy)cyclohexyl)-2-(4-(4-(4-(2,4-dioxotetrahydropyrimidin-1(2H)-yl)-1H-indol-1-yl)piperidine-1-carbonyl)piperidin-1-yl)pyrimidine-5-carboxamide] | ≥ 6.0 | 
Cl.N#Cc1ccc(O[C@H]2CC[C@H](NC(=O)c3ccc(N4CC(CN5CCC(n6ccc7c(N8CCC(=O)NC8=O)cccc76)CC5)C4)nn3)CC2)cc1Cl [EAR72, N-((1r,4r)-4-(3-Chloro-4-cyanophenoxy)cyclohexyl)-6-(3-((4-(4-(2,4-dioxotetrahydropyrimidin-1(2H)-yl)-1H-indol-1-yl)piperidin-1-yl)methyl)azetidin-1-yl)pyridazine-3-carboxamide hydrochloride] |  | mean asymptote max (hydrochloride): > 70%
Cl.N#Cc1ccc(O[C@H]2CC[C@H](NC(=O)c3ccc(N4CCC[C@@H](CN5CCC(n6ccc7c(N8CCC(=O)NC8=O)cccc76)CC5)C4)nn3)CC2)cc1Cl [EAR74, N-((1r,4S)-4-(3-Chloro-4-cyanophenoxy)cyclohexyl)-6-((S)-3-((4-(4-(2,4-dioxotetrahydropyrimidin-1(2H)-yl)-1H-indol-1-yl)piperidin-1-yl)methyl)piperidin-1-yl)pyridazine-3-carboxamide hydrochloride] |  | mean asymptote max: ≥ 50%
CC(C)n1ccc2c(N3CCC(=O)NC3=O)cc(C(=O)NCCOCCN3CCN(c4ccc(C(=O)N[C@H]5CC[C@H](Oc6ccc(C#N)c(Cl)c6)CC5)nn4)CC3)cc21 [EAR76, N-(2-(2-(4-(6-(((1r,4r)-4-(3-Chloro-4-cyanophenoxy)cyclohexyl)carbamoyl)pyridazin-3-yl)piperazin-1-yl)ethoxy)ethyl)-4-(2,4-dioxotetrahydropyrimidin-1(2H)-yl)-1-isopropyl-1H-indole-6-carboxamide] | ≥ 7.0 | mean relative pDC50 (listed as Example EAR76): ≥ 6.0
CC(C)n1ccc2c(N3CCC(=O)NC3=O)cc(C(=O)N3CCN(c4ccc(C(=O)N[C@H]5CC[C@H](Oc6ccc(C#N)c(Cl)c6)CC5)nn4)CC3)cc21 [EAR77, N-((1r,4r)-4-(3-Chloro-4-cyanophenoxy)cyclohexyl)-6-(4-(4-(2,4-dioxotetrahydropyrimidin-1(2H)-yl)-1-isopropyl-1H-indole-6-carbonyl)piperazin-1-yl)pyridazine-3-carboxamide] | ≥ 6.0 | 
CC(C)n1ccc2c(N3CCC(=O)NC3=O)cc(C(=O)N3CCN(CC4CCN(c5ccc(C(=O)N[C@H]6C(C)(C)[C@H](Oc7ccc(C#N)c(Cl)c7)C6(C)C)nn5)CC4)CC3)cc21 [EAR78, N-((1r,3r)-3-(3-Chloro-4-cyanophenoxy)-2,2,4,4-tetramethylcyclobutyl)-6-(4-((4-(4-(2,4-dioxotetrahydropyrimidin-1(2H)-yl)-1-isopropyl-1H-indole-6-carbonyl)piperazin-1-yl)methyl)piperidin-1-yl)pyridazine-3-carboxamide] | ≥ 7.0 | mean relative pDC50 (listed as Example EAR78): ≥ 6.0
